Reference: PubChem BioAssay AID1745853 (National Center for Advancing Translational Sciences (NCATS), 2022)
The list shows a part of the results. The main result of the screen is listed elsewhere. These columns were measured beside it and carry no call. Square brackets hold non-standard residues; d marks the D form. Peptide text beside a SMILES is read from it. Ala(indol-2-yl) = N[C@@H](Cc1cc2ccccc2[nH]1)C(=O)O; Aib = CC(C)(N)C(=O)O

What was measured:
Assay in all cases: Primary Screen for Target Class Profiling of Small Molecule Inhibitors of Methyltransferases
[1] = biological target: Glycine N-methyltransferase (Homo sapiens) (UniProt Q14749); settings: purified enzyme, MTase-Glo SAH luminescence; measured here: GNMT inhibition; at 40 µM; stronger effect = lower value
In short: (§1)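 Each enzyme was reacted with SAM and its substrate, with compounds tested once at 40 uM; SAH formed was read by MTase-Glo luminescence.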

[2] = biological target: Guanidinoacetate N-methyltransferase (Homo sapiens) (UniProt Q14353); settings: purified enzyme, MTase-Glo SAH luminescence; measured here: GAMT inhibition; at 40 µM; stronger effect = lower value
In short: as §1

[3] = biological target: Histamine N-methyltransferase (Homo sapiens) (UniProt P50135); settings: purified enzyme, MTase-Glo SAH luminescence; measured here: HNMT inhibition; at 40 µM; stronger effect = lower value
In short: as §1

[4] = biological target: Nicotinamide N-methyltransferase (Homo sapiens) (UniProt P40261); settings: purified enzyme, MTase-Glo SAH luminescence; measured here: NNMT inhibition; at 40 µM; stronger effect = lower value
In short: as §1

[5] = biological target: Phenylethanolamine N-methyltransferase (Homo sapiens) (UniProt P11086); settings: purified enzyme, MTase-Glo SAH luminescence; measured here: PNMT inhibition; at 40 µM; stronger effect = lower value
In short: as §1
On the % scale 0 is the no-effect control and ±100 the full control effect.

Row | Compound | activity change, negative = inhibition [1] [%] | activity change, negative = inhibition [2] [%] | activity change, negative = inhibition [3] [%] | activity change, negative = inhibition [4] [%] | activity change, negative = inhibition [5] [%]
1 | C=C(CO)[C@@]12O[C@@H]1[C@@]1(C)C(=CC2=O)CC[C@@H](O)[C@@H]1C | 0 | 7.14 | 12.1 | -4.33 | 3.52
2 | CCOc1ccccc1NC(=O)N1Cc2ccccc2-n2cccc2C1c1cccc(C)c1 (stereo not drawn) | 5.8 | 2.23 | 6.56 | 1.45 | -15.1
3 | COc1ccc(C)cc1NC(=O)N1Cc2ccccc2-n2cccc2C1C (stereo not drawn) | 3.31 | 0 | -0.871 | -3.78 | 5.14
4 | CC[C@H]1CN2CC[C@H]1C[C@@H]2CN(Cc1cccs1)Cc1cccs1 | -6.68 | -7.49 | -39.9 | -25 | -7.37
5 | C[C@H]1O[C@@H](O[C@H]2CC[C@]3(C=O)C4CC[C@]5(C)[C@@H](C6=CC(=O)OC6)CC[C@]5(O)[C@@H]4CC[C@]3(O)C2)C[C@@H](O)[C@@H]1O (stereo partly drawn) | -2.22 | -9.91 | 3.35 | -20.3 | -0.844
6 | CCC1c2cccn2-c2ccccc2CN1C(=O)NCc1ccc(F)cc1 (stereo not drawn) | -2.39 | -2.4 | -13.5 | -10 | -3.86
7 | COc1cccc(NC(=O)N2Cc3ccccc3-n3cccc3C2C)c1 (stereo not drawn) | 10 | 0 | 3.33 | 2.13 | 6.42
8 | COc1ccc(C2c3cccn3-c3ccccc3CN2C(=O)Nc2cccc(SC)c2)cc1 (stereo not drawn) | 3.23 | 4.72 | -0.547 | 0.571 | 1.51
9 | CC(N)[C@H](O)c1ccc(O)c(O)c1 (stereo partly drawn) | -24 | 11.6 | 1.64 | -2.15 | 4.82
10 | CSc1ccc(C2c3cccn3-c3ccccc3CN2C(=O)Nc2ccc(C)c(C)c2)cc1 (stereo not drawn) | 2.53 | 2.75 | 4.6 | 11.5 | 11.3
11 | Cc1ncc(CNC(=O)N(CCCl)N=O)c(N)n1 | -0.603 | 13.3 | 8.85 | -1.39 | 3.87
12 | CCOc1ccccc1NC(=O)N1Cc2ccccc2-n2cccc2C1c1cccc(Cl)c1 (stereo not drawn) | 14.8 | 1.8 | 7.63 | 6.51 | 6.92
13 | Cc1c(Cl)cccc1NC(=O)N1Cc2ccccc2-n2cccc2C1C (stereo not drawn) | 4.14 | 0.586 | -1.81 | -3.29 | 3.71
14 | CN1CCN(C(=O)Cc2c[nH]c3ncc(-c4ccnn4C)cc23)CC1 | -8.61 | -5.37 | -5.58 | -9.55 | -15.4
15 | O=C([C@H]1CN2CCC1C[C@@H]2Cn1cc(-c2ccccn2)nn1)N1CCOCC1 (stereo partly drawn) | -1.9 | -3.89 | -5.75 | -7.27 | -4.73
16 | Cc1ccc(NC(=O)N2Cc3ccccc3-n3cccc3C2C(C)C)cc1Cl (stereo not drawn) | 0.303 | 0 | 5.19 | 2.64 | 2.07
17 | COc1ccccc1NC(=O)N1Cc2ccccc2-n2cccc2C1c1ccccc1Cl (stereo not drawn) | 6.86 | 0.916 | -0.057 | -1.7 | 4.79
18 | COc1ccc2[nH]cc(CCN)c2c1 | -7.42 | 1.83 | -14 | -5.29 | 1.71
19 | CCCS(=O)(=O)NC[C@H]1C[C@@H]2CCN1C[C@@H]2c1cc(C2CCCCC2)nn1C | -3.25 | -2.39 | -6.62 | -10.9 | -4.08
20 | CCOc1ccc(NC(=O)N2Cc3ccccc3-n3cccc3C2c2cccc(Cl)c2)cc1 (stereo not drawn) | 16 | 2.62 | 9.89 | 8.82 | 10.9

Row | Compound | activity change, negative = inhibition [1] [%] | activity change, negative = inhibition [2] [%] | activity change, negative = inhibition [3] [%] | activity change, negative = inhibition [4] [%] | activity change, negative = inhibition [5] [%]
21 | COc1ccc(C2c3cccn3-c3ccccc3CN2C(=O)Nc2cccc(Br)c2)cc1 (stereo not drawn) | 14.4 | 0.743 | 6.68 | 4.11 | 9.73
22 | O=C(NCc1ccco1)N1Cc2ccccc2-n2cccc2C1c1ccccc1 (stereo not drawn) | 11.3 | 0.493 | 4.47 | 3.21 | 9.48
23 | C[C@H]1C/C=C/[C@H]2[C@@H]3O[C@]3(C)[C@@H](C)[C@H]3[C@H](Cc4ccccc4)NC(=O)[C@]32OC(=O)O/C=C/[C@@](C)(O)C1=O | -2.76 | -1.06 | 2.85 | -14.8 | 1.16
24 | CCCSc1ncc(CN2CCCC3(CCNC3)C2)cn1 (stereo not drawn) | -4.47 | -9.66 | -24.8 | -14.3 | -11.3
25 | CC12CCC3C(C1)c1c(cc(O)c(C(=O)c4ccccc4)c1OC3(C)C)O2 (stereo not drawn) | -2 | 1.63 | 1.33 | -16.9 | -3.73
26 | COC1=CC(=O)O[C@@H](CCc2ccccc2)C1 | -4.14 | -4.31 | 2.84 | -20.5 | -1.15
27 | CC(C)CCNC(=O)N1Cc2ccccc2-n2cccc2C1c1ccc(Cl)cc1 (stereo not drawn) | 0.527 | 3.96 | 7.63 | 1.61 | 8.18
28 | CC1=CC2OC3CC(O)[C@](C)([C@@]2(C)C(O)C1=O)[C@]31CO1 (stereo partly drawn) | 0.171 | 8.49 | 11.9 | -5.92 | 5.85
29 | CCOC(=O)c1ccccc1NC(=O)N1Cc2ccccc2-n2cccc2C1c1cccc(Cl)c1 (stereo not drawn) | 8.23 | 1.06 | 2.49 | 7.34 | 5.64
30 | C[C@@H]1C[C@@H](O)[C@]2(O)O[C@@H]3C[C@@]4(C=O)C(CC[C@@H]5C4CC[C@]4(C)[C@@H](C6=CC(=O)OC6)CC[C@]54O)C[C@H]3O[C@@H]2O1 (stereo partly drawn) | -6.71 | -7.54 | 3.83 | -23 | -0.704
31 | Cn1nc(-c2cccs2)cc1[C@H]1CN2CC[C@H]1C[C@@H]2CNC(=O)C1CCCCC1 | -8 | -7.98 | -11.6 | -19.9 | -11.8
32 | CN(C)c1ccc(C2c3cccn3-c3ccccc3CN2C(=O)NCc2ccc(F)cc2)cc1 (stereo not drawn) | 11.9 | 0 | 3.93 | 3.18 | 6.75
33 | CCOc1ccc(C2c3cccn3-c3ccccc3CN2C(=O)Nc2cc(Cl)ccc2C)cc1 (stereo not drawn) | 0.934 | 0 | 7.08 | 0.396 | 7.28
34 | Oc1ccc2c3c1O[C@H]1c4[nH]c5c(c4C[C@@]4(O)[C@@H](C2)N(CC2CC2)CC[C@]314)C[C@@]1(O)[C@H]2Cc3ccc(O)c4c3[C@@]1(CCN2CC1CC1)[C@H]5O4 | 6.97 | 14.1 | -36.4 | -8.1 | -0.406
35 | CCCCc1ccc(C(=O)O)nc1 | 3.47 | 6.73 | 4.99 | -1.77 | 9.65
36 | CC[C@@]1(O)C(=O)OCc2c1cc1n(c2=O)Cc2cc3c(OC)cccc3nc2-1 | -7.93 | -10.5 | 0.602 | -19.5 | -13.1
37 | CC(C)CCNC(=O)N1Cc2ccccc2-n2cccc2C1c1cccs1 (stereo not drawn) | 1.45 | 0.555 | -0.882 | -2.44 | -2.36
38 | CN(C)[C@@H]1C(=O)C(C(N)=O)=C(O)[C@@]2(O)C(=O)C3=C(O)c4c(O)ccc(Cl)c4[C@@](C)(O)C3C[C@@H]12 (stereo partly drawn) | -11.1 | 12 | 0.159 | -1.65 | -2.6
39 | COc1cccc(NC(=O)N2Cc3ccccc3-n3cccc3C2c2ccc(OC)c(OC)c2)c1 (stereo not drawn) | 15.6 | 2.03 | 9.57 | 6.11 | 9.33
40 | COc1cccc(CNC(=O)N2Cc3ccccc3-n3cccc3C2c2ccc(OC)c(OC)c2)c1 (stereo not drawn) | 6.51 | 0.709 | 0.308 | -0.056 | 5.3

Row | Compound | activity change, negative = inhibition [1] [%] | activity change, negative = inhibition [2] [%] | activity change, negative = inhibition [3] [%] | activity change, negative = inhibition [4] [%] | activity change, negative = inhibition [5] [%]
41 | Cc1cnc(C2CC2)n1C1CCNCC1 | -1.19 | -3.6 | -23.1 | -3.53 | -4.7
42 | CN1C(=O)CN=C(c2ccccc2Cl)c2cc(Cl)ccc21 | 5.05 | 3.82 | 6.18 | -20.2 | -0.556
43 | COC(=O)CCNC(=O)N1Cc2ccccc2-n2cccc2C1c1cccc(Cl)c1 (stereo not drawn) | 6.6 | 0.988 | -3.22 | -0.313 | 5.79
44 | COc1ccc(C2c3cccn3-c3ccccc3CN2C(=O)Nc2ccc(Cl)cc2)cc1OC (stereo not drawn) | 7.71 | 1.08 | 4.32 | -1.11 | 4.42
45 | C=CCN1CCC23c4c5ccc(O)c4O[C@H]2C(=O)CC[C@@]3(O)C1C5 (stereo partly drawn) | 0.225 | 15.5 | 6.34 | 0.298 | 6
46 | Cc1ccc(C2c3cccn3-c3ccccc3CN2C(=O)Nc2ccc3c(c2)OCCO3)cc1 (stereo not drawn) | 7.18 | 0 | 5.52 | 4.91 | 3.95
47 | CCC1c2cccn2-c2ccccc2CN1C(=O)Nc1ccc(F)cc1 (stereo not drawn) | 0.291 | 0.947 | -8.52 | -1.52 | -0.882
48 | Cc1ccccc1C1c2cccn2-c2ccccc2CN1C(=O)Nc1ccc(F)cc1 (stereo not drawn) | 1.65 | 0 | -1.96 | -4.38 | -0.519
49 | C[C@H](NC(=O)Cc1cc(F)cc(F)c1)C(=O)N[C@@H]1N=C(c2ccccc2)c2ccccc2N(C)C1=O | -2.02 | -7.56 | -5.39 | -25.4 | -13.6
50 | c1cc2c(cc1C1OC[C@@H]3C(c4ccc5c(c4)OCO5)OC[C@H]13)OCO2 (stereo partly drawn) | – | -5.55 | – | -11.2 | -1.6
51 | CSc1ccc(C2c3cccn3-c3ccccc3CN2C(=O)NC2CCCC2)cc1 (stereo not drawn) | -2 | 1.68 | 0.185 | -7.15 | -0.081
52 | C[N+](C)(C)CC#CCOC(=O)Nc1cccc(Cl)c1 | 0.858 | 15.4 | 5.39 | 0.581 | 9.94
53 | CC(C)(NC(=O)[C@@H](N)Cc1ccc(O)cc1)C(=O)N[C@@H](Cc1cc2ccccc2[nH]1)C(=O)N[C@@H](Cc1ccccc1)C(=O)O (H-Y[Aib][Ala(indol-2-yl)]F-OH) | 3.08 | 1.57 | 8.44 | -9.4 | 0.272
54 | CCC1c2cccn2-c2ccccc2CN1C(=O)NCc1ccc(C)cc1 (stereo not drawn) | 6.99 | 0 | 3.53 | -1.86 | 5.41
55 | CCc1ccc(C2c3cccn3-c3ccccc3CN2C(=O)Nc2cc(OC)ccc2OC)cc1 (stereo not drawn) | 4.68 | 0 | -1.49 | 1.13 | 2.06
56 | O=C1NCN(c2ccccc2)C12CCN(CC1COc3ccccc3O1)CC2 (stereo not drawn) | -4.22 | 9.05 | 5.06 | -7.47 | 1.42
57 | CC(O)(c1ccccc1)C(Cc1ccc(Cl)cc1)n1cncn1 (stereo not drawn) | -0.472 | -6.79 | -1.68 | -15.6 | -11.6
58 | Oc1ccc2c3c1O[C@H]1c4[nH]c5c(N=C=S)cccc5c4C[C@@]4(O)[C@@H](C2)N(CC2CC2)CC[C@]314 | -5.25 | -9.9 | -17.4 | -30.6 | -11.5
59 | CCC(C)(OC(C)=O)C(=O)O[C@H]1[C@H](OC(C)=O)C[C@@H]2[C@@](C)([C@@H]3C[C@H]4C=CO[C@H]4O3)[C@H](C)C[C@H](OC(C)=O)[C@@]2(COC(C)=O)[C@@]12CO2 (stereo partly drawn) | 0.214 | 8.94 | 11.7 | -4.06 | 4.66
